# Measured values from PMC4336329 (PLoS ONE, 2015).
# Screen size: about 310,000 compounds; about 2,200 (0.71%) showed an effect of 50% or more. Effects have a minus sign here. This is one part of the list.
# Biological target: human ether-à-go-go-related gene (hERG) potassium channel (human, UniProt Q12809)
# Test: primary screen, population patch clamp on CHO cells stably expressing hERG
# Sequence of human ether-à-go-go-related gene (hERG) potassium channel (Q12809 whole entry, looked up): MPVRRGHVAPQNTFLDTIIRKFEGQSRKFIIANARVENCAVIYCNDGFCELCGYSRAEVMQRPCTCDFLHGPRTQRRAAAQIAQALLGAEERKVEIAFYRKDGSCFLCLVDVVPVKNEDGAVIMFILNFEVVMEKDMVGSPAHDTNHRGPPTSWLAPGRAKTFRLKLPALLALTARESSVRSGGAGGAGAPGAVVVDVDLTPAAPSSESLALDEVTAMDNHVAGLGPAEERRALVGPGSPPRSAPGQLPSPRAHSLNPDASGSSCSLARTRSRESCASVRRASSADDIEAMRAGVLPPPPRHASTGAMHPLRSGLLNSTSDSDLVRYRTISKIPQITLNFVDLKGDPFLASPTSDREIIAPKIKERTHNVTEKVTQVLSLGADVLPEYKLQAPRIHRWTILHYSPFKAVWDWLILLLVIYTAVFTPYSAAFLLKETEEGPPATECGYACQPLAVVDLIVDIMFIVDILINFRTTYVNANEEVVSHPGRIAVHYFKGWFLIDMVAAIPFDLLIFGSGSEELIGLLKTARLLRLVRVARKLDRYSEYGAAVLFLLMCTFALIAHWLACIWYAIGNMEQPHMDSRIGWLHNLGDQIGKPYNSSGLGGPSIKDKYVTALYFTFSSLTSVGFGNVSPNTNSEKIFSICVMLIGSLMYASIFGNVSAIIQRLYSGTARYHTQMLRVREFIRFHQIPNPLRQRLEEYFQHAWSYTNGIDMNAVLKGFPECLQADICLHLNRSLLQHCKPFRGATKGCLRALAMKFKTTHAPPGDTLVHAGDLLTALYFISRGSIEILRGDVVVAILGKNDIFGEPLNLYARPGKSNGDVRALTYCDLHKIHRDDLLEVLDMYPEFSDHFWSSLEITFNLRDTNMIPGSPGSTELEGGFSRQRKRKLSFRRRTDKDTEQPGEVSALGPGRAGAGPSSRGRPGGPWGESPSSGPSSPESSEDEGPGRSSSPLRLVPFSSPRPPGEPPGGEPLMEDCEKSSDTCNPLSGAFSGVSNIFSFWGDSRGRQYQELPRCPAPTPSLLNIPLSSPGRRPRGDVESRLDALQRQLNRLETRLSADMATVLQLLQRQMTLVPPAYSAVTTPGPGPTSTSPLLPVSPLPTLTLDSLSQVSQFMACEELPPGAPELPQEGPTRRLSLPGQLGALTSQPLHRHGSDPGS
row,Structure (SMILES),"hERG current change (%, negative = inhibition) at 1uM"
1,COc1ccc2oc(C(=O)Nc3ccc(N4CCOCC4)cc3)c(C)c2c1,3.18%
2,CC(C)CCC(=O)N1CCC(N2CCC(C(=O)NCc3ccccn3)CC2)CC1,10.1%
3,CC(C)Oc1ccccc1/C=N/NC(=O)C1CC1,14.2%
4,Cc1occc(=O)c1OCc1c(F)cccc1Cl,7.18%
5,COc1ccc(CCNC(=O)CSc2ccccn2)cc1OC,15.3%
6,CCCN(C(=O)Cn1c(C(F)(F)F)nc2ccccc21)C1CCS(=O)(=O)C1 (centres unmarked),-0.749%
7,COCCn1c(Sc2ccccc2)nc2c1c(=O)[nH]c(=O)n2C,6.26%
8,CCS(=O)(=O)c1nc2ccccc2n1CC(=O)N1CCOCC1,6.39%
9,CC(C)NC(=O)COc1cccc2ccccc12,6.11%
10,CCOC(=O)N1CCN(C(=O)c2cc3ccccc3o2)CC1,18.5%
11,Cc1cccc(C)c1NC(=S)N/N=C/c1ccc(C(=O)O)cc1,8.3%
12,OC(CNCc1ccccn1)c1ccccc1 (centres unmarked),5.57%
13,COc1ccc(CCNC(=O)CC2SC(=NCCC(C)C)NC2=O)cc1OC (centres unmarked),-1.71%
14,COc1ccc(C2/C=C\CN(CC3CC3)CC(=O)N2Cc2ccc(F)cc2)cc1 (centres unmarked),8.56%
15,O=C(O)C(=O)O.c1ccc(CNc2nc(CN3CCOCC3)nc3scc(-c4ccccc4)c23)cc1,1.13%
16,CC1=C(C(=O)OCC2CCCO2)C(c2ccncc2)C2=C(CCCC2=O)N1 (centres unmarked),25.4%
17,O=S(=O)(Nc1cccnc1Cl)c1ccc(F)cc1,12.7%
18,CCOC(=O)N/N=C(\C)c1ccc(C)c([N+](=O)[O-])c1,5.33%
19,COC(=O)C(CCSC)NC(=O)c1cn(-c2ccc(OC)cc2)c(=O)c2ccccc12 (centres unmarked),19.2%
20,CCOc1ccc(S(=O)(=O)N2CCN(C(=O)Cc3ccc(S(=O)(=O)N4CCOCC4)s3)CC2)cc1,5.95%
21,c1ccc(Sc2cnc3ccccc3n2)cc1,13.9%
22,COc1ccc(C2C(C(=O)c3sc(C)nc3C)=C(O)C(=O)N2CCCn2ccnc2)cc1 (centres unmarked),11.9%
23,CN(C)c1cc(=O)n2c(n1)SCCC2,6.86%
24,Cc1ccc(NC(=O)C2CCN(S(=O)(=O)c3ccc4c(c3)oc(=O)n4C)CC2)cc1,16.7%
25,CCOC(CNc1ncnc2c1cnn2C)OCC,17%
26,COc1cccc(CN(C)C(=O)C(Cc2ccccc2)NC(=O)c2ccccc2)c1OC (centres unmarked),5.29%
